Data on 19 compounds can be found in US4843087A (priority 1986, dated 1989).

Structures are written as SMILES. In brackets after ≈: the same amount, converted by molar mass.

The test system of one assay is echovirus-9. In words: in vivo efficacy in echovirus-9 mouse infection model. The note with it: mice, twice a day dosing with 12.5 mg/kg.
`Cc1cc(CCCCCOc2c(Cl)cc(C3=NCCO3)cc2Cl)on1` [5-{5-[2,6-Dichloro-4-(4,5-dihydro-2-oxazolyl)phenoxyl]-pentyl}-3-methylisoxazole]: the “effect against echovirus-9 induced paralysis” value is listed as “effective”.

The subject of a further assay is HRV2. The assay is described as follows: microbe, parasite or virus in culture. The note with it: Enterovirus, HRV2, HeLa, read-out: Rhinovirus MIC against HRV2 only.
As for `Cc1cc(CCCCCCCc2ccc(C3=NCCO3)cc2)on1` [6(g), 5-{7-[4-(4,5-Dihydro-2-oxazolyl)phenyl]heptyl}-3-methylisoxazole], the EC50 is 0.06 µg/mL (≈ 0.184 µM).
Same read-out and setting: the same measure for `Cc1cc(CCCCOc2ccc(C3=NCCO3)cc2)on1` [21 (b), 5-{4-[4-(4,5-Dihydro-2-oxazolyl)phenoxy]butyl}-3-methylisoxazole]: 0.5 µg/mL (≈ 1.66 µM); for `Cc1cc(CCCCCCCOc2ccc(-c3ncco3)cc2)on1` [87(b), 3-Methyl-5-{7-[4-(2-oxazolyl)phenoxy]heptyl}isoxazole]: 0.4 µg/mL (≈ 1.18 µM); for `Cc1cc(CCC2CCC(COc3ccc(C4=NCCO4)cc3)CC2)on1` (stereo not shown) [101 (b), 5-{2-[4-[[4-(4,5-Dihydro-2-oxazolyl)phenoxy]methyl]cyclohexyl]ethyl}-3-methylisoxazole]: 1.9 µg/mL (≈ 5.16 µM).
Same read-out and setting: the same measure for `OCc1cc(CCCCCCCOc2ccc(C3=NCCO3)cc2)on1` [Example 11, 5-{7-[4-(4,5-Dihydro-2-oxazolyl)phenoxy]heptyl}-3-isoxazolemethanol]: 0.3 µg/mL (≈ 0.837 µM); for `Cc1cc(C(O)CCCCCCOc2ccc(C3=NCCO3)cc2)on1` (stereo not drawn) [Example 12, α-{6-[4-(4,5-dihydro-2-oxazolyl)phenoxy]hexyl}-3-methyl-5-isoxazolemethanol]: 1.4 µg/mL (≈ 3.91 µM).
For `Cc1cc(CCCCCCCCOc2ccc(C3=NCCO3)cc2Cl)on1` [Example 22, 5-{8-[2-Chloro-4-(4,5-dihydro-2-oxazolyl)phenoxy]octyl}-3-methylisoxazole], the EC50 was determined as 0.4 µg/mL (≈ 1.02 µM).
On to `Cc1cc(CCCCCCCc2ccc(C3=NC(CO)CO3)cc2)on1` (stereo not shown) [Example 25, 5-{7-[4-(4,5-Dihydro-4-hydroxymethyl-2-oxazolyl)phenyl]heptyl}-3-methylisoxazole], for which the EC50 came out at 2.1 µg/mL (≈ 5.89 µM).
`CC(=O)OCc1cc(CCCCCCCOc2ccc(C3=NCCO3)cc2)on1` [Example 28, 5-{7-[4-(4,5-Dihydro-2-oxazolyl)phenoxy]heptyl}-3-isoxazolemethanol acetate]: the EC50 amounted to 0.1 µg/mL.
The same measure, in the same setting: the same measure for `Cc1cc(CCCCCOc2cccc(C3=NCCO3)c2)on1` [Example 30, 5-{5-[3-(4,5-Dihydro-2-oxazolyl)phenoxy]pentyl}-3-methylisoxazole]: 0.08 µg/mL (≈ 0.254 µM); for `Cc1cc(CCCCCOc2ccc(C3=NCCO3)cc2Cl)no1` [Example 37, 3-{5-[2-Chloro-4-(4,5-dihydro-2-oxazolyl)phenoxy]pentyl}-5-methylisoxazole]: 0.12 µg/mL (≈ 0.344 µM).
Regarding `Cc1cc(CCCCOc2ccc(C3=NC(C)(C)CO3)cc2)on1` [Example 67, 5-{4-[4-(4,5-Dihydro-4,4-dimethyl-2-oxazolyl)phenoxy]butyl}-3-methylisoxazole], the EC50 was 2.6 µg/mL (≈ 7.92 µM).
The same measure, in the same setting: the same measure for `Cc1cc(CCCCCCCOc2ccc(C3=NCCO3)cc2C=O)on1` [Example 69, 5-{7-[4-(4,5-Dihydro-2-oxazolyl)-2-formylphenoxy]heptyl}-3-methylisoxazole]: 0.5 µg/mL (≈ 1.35 µM); for `Cc1cc(CCCCCOc2ccc(C3=NCCO3)cc2C(C)C)on1` [Example 71, 5-{5-[4-(4,5-Dihydro-2-oxazolyl)-2-(1-methylethyl)phenoxy]pentyl}-3-methylisoxazole]: 0.075 µg/mL (≈ 0.21 µM); for `Cc1cc(CCCCCOc2c(Cl)cc(C3=NCCO3)cc2C(C)(C)C)on1` [Example 78, 5-{5-[2-Chloro-4-(4,5-dihydro-2-oxazolyl)-6-(1,1-dimethylethyl)phenoxy]pentyl}-3-methylisoxazole]: 3.1 µg/mL (≈ 7.66 µM).
Still for that read-out and setting: the same measure for `Cc1cc(CCCCCOc2c(C(C)(C)C)cc(C3=NCCO3)cc2C(C)(C)C)on1` [Example 81, 5-{5-[4-(4,5-Dihydro-2-oxazolyl)-2,6-bis(1,1-dimethylethyl)phenoxy]pentyl}-3-methylisoxazole]: 2.1 µg/mL (≈ 4.92 µM); for `Cc1cc(CCCCCOc2ccc(C3=NCCO3)cc2CO)on1` [Example 85, 5-{5-[4-(4,5-Dihydro-2-oxazolyl)-2-hydroxymethylphenoxy]pentyl}-3-methylisoxazole]: 2.46 µg/mL (≈ 7.14 µM); for `Cc1cc(CCCCCCCOc2ccc(C3=NC[C@@H](C)O3)cc2)on1` [Example 123, (R)-5-{7-[4-(4,5-Dihydro-5-methyl-2-oxazolyl)phenoxy]heptyl}-3-methylisoxazole]: 0.4 µg/mL (≈ 1.12 µM).
